# Some of the results follow. The energies were worked out here from pooled read counts, against the library average; single values are noisy.
# Molecular target: T1, Pho4 (S. cerevisiae) (UniProt P07270)
# T1 sequence: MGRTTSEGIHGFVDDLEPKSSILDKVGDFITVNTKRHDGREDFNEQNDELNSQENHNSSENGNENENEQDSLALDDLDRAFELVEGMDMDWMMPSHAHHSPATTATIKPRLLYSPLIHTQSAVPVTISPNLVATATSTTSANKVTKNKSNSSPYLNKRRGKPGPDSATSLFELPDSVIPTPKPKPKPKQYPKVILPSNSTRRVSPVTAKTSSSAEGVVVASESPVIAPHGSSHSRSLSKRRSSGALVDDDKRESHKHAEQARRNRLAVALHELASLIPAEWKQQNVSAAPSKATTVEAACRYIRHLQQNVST
# Experiment: relative binding free energy (BET-seq); higher = weaker binding
# Conditions: reference: library average
row,Sequence,relative binding free energy
1,TTGAGCACGTGAGATA,0.07 kcal/mol
2,GTTTTCACGTGGTACA,0.21 kcal/mol
3,GGGGGCACGTGTAGAC,-0.15 kcal/mol
4,TATATCACGTGAGTTC,0.52 kcal/mol
5,ATTGCCACGTGATGGT,0.08 kcal/mol
6,GTTATCACGTGCTTGT,0.17 kcal/mol
7,GGCGTCACGTGGGTTT,0.05 kcal/mol
8,TGTATCACGTGTAGAT,0.23 kcal/mol
9,TAAAGCACGTGCGGAG,-0.01 kcal/mol
10,GATTACACGTGAGTTG,0.31 kcal/mol
11,AGTCGCACGTGGCTGG,-0.19 kcal/mol
12,ACAGGCACGTGGGGGA,-0.26 kcal/mol
13,ATCTGCACGTGGTGGT,-0.17 kcal/mol
14,TGAGGCACGTGGAGAT,-0.02 kcal/mol
15,GGTGTCACGTGAACTG,0.42 kcal/mol
16,TGGATCACGTGGGTAA,0.01 kcal/mol
17,CTATTCACGTGGGTGA,0.2 kcal/mol
18,GAAGTCACGTGGTGAT,0.07 kcal/mol
19,TAGGCCACGTGTTTAA,0.02 kcal/mol
20,TTGATCACGTGACTTT,0.2 kcal/mol
21,TCTAGCACGTGGGTGG,-0.24 kcal/mol
22,TTTGGCACGTGTAGTG,0.04 kcal/mol
23,GTGGCCACGTGATTTG,0.15 kcal/mol
24,TGGTTCACGTGACGAG,0.29 kcal/mol
25,TAGGTCACGTGGAGGT,0.1 kcal/mol

row,Sequence,relative binding free energy
1,ATTATCACGTGATTTG,0.29 kcal/mol
2,TGTGCCACGTGCAGGT,-0.25 kcal/mol
3,CTCGTCACGTGGTTGG,-0.01 kcal/mol
4,AGGGGCACGTGTGTGG,-0.17 kcal/mol
5,TAGATCACGTGACGGG,0.23 kcal/mol
6,GTCGTCACGTGGAAGT,0.16 kcal/mol
7,GGGCTCACGTGCGGCG,0.14 kcal/mol
8,GTTTGCACGTGATATC,0.19 kcal/mol
9,ATCTGCACGTGGGGGC,-0.17 kcal/mol
10,AGTAACACGTGAATGG,0.18 kcal/mol
11,CTTCTCACGTGATTGT,0.29 kcal/mol
12,ATGATCACGTGTGTGC,0.21 kcal/mol
13,CGGCTCACGTGTGTTT,0.16 kcal/mol
14,AGTGACACGTGGCTGA,-0.08 kcal/mol
15,TTAGGCACGTGAATTG,0.1 kcal/mol
16,TGTGACACGTGGGATA,-0.12 kcal/mol
17,TTATGCACGTGTAAAT,0.15 kcal/mol
18,GGTGTCACGTGCGTCG,0.07 kcal/mol
19,TATGTCACGTGAGGCT,0.28 kcal/mol
20,TATAACACGTGGGGAT,-0.1 kcal/mol
21,GTTTGCACGTGTGCGC,0.01 kcal/mol
22,GAGGGCACGTGGAACG,0.1 kcal/mol
23,CGGTCCACGTGTGTAG,0.03 kcal/mol
24,GCGTTCACGTGTGCTT,0.34 kcal/mol
25,ATATTCACGTGGGAGG,0.32 kcal/mol

row,Sequence,relative binding free energy
1,TTGAGCACGTGAGTGC,0.13 kcal/mol
2,AGGTGCACGTGTGTCC,-0.05 kcal/mol
3,AAAGTCACGTGGGTAA,0.07 kcal/mol
4,TCGGTCACGTGGGGAG,0.03 kcal/mol
5,GGGGTCACGTGTGTTG,0.19 kcal/mol
6,CAGGGCACGTGTTTAG,-0.13 kcal/mol
7,TGGGGCACGTGAGTAG,0.05 kcal/mol
8,GAGCGCACGTGTTTTA,0.05 kcal/mol
9,CGGATCACGTGGTGAG,0.03 kcal/mol
10,GGGGGCACGTGTAAAT,0.1 kcal/mol
11,GGCGGCACGTGAGTGA,0.14 kcal/mol
12,ATGGCCACGTGATGTT,0.14 kcal/mol
13,TTATTCACGTGAGTGG,0.45 kcal/mol
14,TACATCACGTGTTTAG,0.21 kcal/mol
15,CGGTGCACGTGGTGTA,-0.18 kcal/mol
16,AGTTACACGTGGGAGA,0.15 kcal/mol
17,TTGTACACGTGAGAGG,0.33 kcal/mol
18,AGAGGCACGTGTTACA,0.03 kcal/mol
19,AGAATCACGTGATTGT,0.34 kcal/mol
20,TGAATCACGTGGGCGA,0.07 kcal/mol
21,GTGGTCACGTGGGTCG,0.02 kcal/mol
22,TTCCTCACGTGGTGTT,0.16 kcal/mol
23,ATAGGCACGTGAGGTA,0.09 kcal/mol
24,AGTATCACGTGGGGAT,0.04 kcal/mol
25,TCTTTCACGTGAGTCT,0.43 kcal/mol

row,Sequence,relative binding free energy
1,AGTCTCACGTGGGGGA,0.08 kcal/mol
2,TCGTTCACGTGGCGGG,0.24 kcal/mol
3,GCAAGCACGTGGGGTA,-0.24 kcal/mol
4,AGGGACACGTGGGAAG,-0.04 kcal/mol
5,ATCGTCACGTGCTGGG,0.14 kcal/mol
6,GCTGGCACGTGTGTAG,-0.01 kcal/mol
7,ATAAACACGTGAAGGT,0.39 kcal/mol
8,AGGGACACGTGTTGAT,0.06 kcal/mol
9,GGGTGCACGTGGCGCG,-0.14 kcal/mol
10,AAAGGCACGTGAGGGG,0.1 kcal/mol
11,AGGGACACGTGGTTTT,0.08 kcal/mol
12,TTACGCACGTGGGAGT,-0.3 kcal/mol
13,GGGAGCACGTGAATGT,0.22 kcal/mol
14,GTGTGCACGTGAAGAG,0.27 kcal/mol
15,TAGTACACGTGAGTAA,0.34 kcal/mol
16,CTCGGCACGTGAAAGG,0.35 kcal/mol
17,AGCTCCACGTGGGGGG,-0.15 kcal/mol
18,AGTGACACGTGCATGG,-0.16 kcal/mol
19,GGTTTCACGTGAACTT,0.55 kcal/mol
20,CAGGACACGTGGGAGG,0.01 kcal/mol
21,TCTGTCACGTGAAGTT,0.24 kcal/mol
22,TTGAGCACGTGATGTA,0.04 kcal/mol
23,TGGTTCACGTGGATAC,0.21 kcal/mol
24,CAATTCACGTGGGGGT,0.19 kcal/mol
25,TCTAGCACGTGATTGT,0.07 kcal/mol

row,Sequence,relative binding free energy
1,GTGTGCACGTGCGGGC,-0.04 kcal/mol
2,TATGTCACGTGGGAAT,0.07 kcal/mol
3,TTTATCACGTGTCGGC,0.28 kcal/mol
4,CTTATCACGTGTGATG,0.09 kcal/mol
5,TGGTGCACGTGGGTCC,-0.14 kcal/mol
6,CTTATCACGTGATGTT,0.21 kcal/mol
7,GGGTCCACGTGGGGGC,0.01 kcal/mol
8,AAAGGCACGTGGGTTT,-0.26 kcal/mol
9,TGAATCACGTGGTTGG,0.2 kcal/mol
10,TGGTGCACGTGTTTGT,-0.01 kcal/mol
11,TGTTACACGTGATGGT,0.19 kcal/mol
12,ACGGTCACGTGCGTTT,0.1 kcal/mol
13,CAGGACACGTGCGGGG,-0.08 kcal/mol
14,TAAGCCACGTGAGTTT,0.19 kcal/mol
15,CGAGGCACGTGGTTTG,-0.25 kcal/mol
16,TTTGTCACGTGAGTGG,0.27 kcal/mol
17,TTTTTCACGTGTTTAG,0.27 kcal/mol
18,GTGAGCACGTGTACGG,-0.07 kcal/mol
19,GTGGGCACGTGGTAGC,-0.12 kcal/mol
20,GTGATCACGTGCGAGT,0.09 kcal/mol
21,TTGCTCACGTGGATTA,0.27 kcal/mol
22,TTTATCACGTGATTGG,0.2 kcal/mol
23,CAGTGCACGTGTAGGT,-0.06 kcal/mol
24,CGGGACACGTGTGTCG,0.04 kcal/mol
25,ATGTCCACGTGAAGTT,0.26 kcal/mol

row,Sequence,relative binding free energy
1,CTTATCACGTGGGCGG,-0.03 kcal/mol
2,GGGGGCACGTGAACTT,0.13 kcal/mol
3,AATGCCACGTGGTGGT,-0.11 kcal/mol
4,TAGATCACGTGTCGGA,0.25 kcal/mol
5,TGTAACACGTGTGGAG,-0.02 kcal/mol
6,CATGTCACGTGAGTTA,0.3 kcal/mol
7,AAATGCACGTGGCTGG,-0.05 kcal/mol
8,TGGACCACGTGGCGGG,-0.06 kcal/mol
9,GGGGACACGTGTAAGG,0.08 kcal/mol
10,CGTTGCACGTGATCTT,0.12 kcal/mol
11,TTAGGCACGTGGTGCA,-0.31 kcal/mol
12,TGGTTCACGTGTCATA,0.26 kcal/mol
13,TTATACACGTGACATT,0.24 kcal/mol
14,AGTTGCACGTGCGTAT,-0.07 kcal/mol
15,GAGGTCACGTGGTCGG,0.21 kcal/mol
16,TTTGGCACGTGGCAAT,-0.09 kcal/mol
17,TGGCTCACGTGGGGGC,0.04 kcal/mol
18,CATTACACGTGTGTAT,0.05 kcal/mol
19,ATGAGCACGTGATTTA,-0.02 kcal/mol
20,TAAGGCACGTGCTTGG,-0.19 kcal/mol
21,AGGGTCACGTGGTCTC,0.13 kcal/mol
